The RNAGym collection of RNA variant scans (doi:10.1073/pnas.2313332121)
This sample is rich in variants without activity.

B1: TPR 5TU (parent)
chain: GGAUCUUCUCGAUCUAACAAAAAAGACAAAUCUGCCACAAAGCUUGAGAGCAUCUUCGGAUGCAGAGGCGGCAGCCUUCGGUGGCGCGAUAGCGCCAACGUUCUCAACUAUGACACGCAAAACGCGUGCUCCGUUGAAUGGAGUUUAUCAUG

Variants of: B1
Experiment: polymerase ribozyme fitness, log enrichment relative to wild type (log ratio); higher = more active; in vitro selection for triplet polymerase activity
Procedure, shortened: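 Streptavidin-bead capture of gel-excised extended constructs, followed by RT-PCR, closed a single triplicate in vitro selection round. That round began by annealing PCR-built, transcribed mutant libraries of each subunit of a heterodimeric triplet polymerase ribozyme with a biotinylated primer, the partner subunit and triplets, then incubating them frozen at −7 °C. After Illumina sequencing of inputs and outputs, genotypes needed ≥10 input reads and ≥1 read per output. Fitness is the base-2 logarithm of genotype enrichment over wild-type enrichment, using inverse-variance-weighted replicate averages.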

Polymerase ribozyme fitness (log ratio), ≤ -4.2:
A23G A26U C79G U104G G152A
A23G A28U C36U U77C C87A G141C
A23G A30G C54A G83U U101G U104A A106G
A23G A37C A66G C75G C93G
A23G A37G C96U A98G U144A
A23G A37U C57A C79U G86A A107G U111C C132A G152C
A23G A52C C85A A107U C108U U145G U151C
A23G A52G C75A G88A G141A
A23G A52G U56C G80A G92U U130G
A23G A52U U56A C57G C79A G86U
A23G A113U A119U
A23G C43U A47G A64C G74A C85A A138C G152A
A23G C43U G84A G141U
A23G C54U C87A
A23G C57G C85G C118A G126A
A23G C79A C87A G117C G140A
A23G G25A C54U A64C C75A A97G C116A
A23G G25C A37C A39C A41C C87A A115G C123G A138U G140U
A23G G25U G48A A73G C87G A89U C96A G136A
A23G G46A C103U A121U G133A G140U
A23G G58C C75U C76U U78A U111A
A23G G59A A60G U77A G81A A91C
A23G G74C C96A C99U C118A G126C G133U A137G
A23G G126U A142C
A23G U31C G42A U56A G62A C103U A121G
A23G U31C G65C C85U G94A A115C U146A
A23G U33G U56C G80C
A23G U45G G84A U111A
A23G U55G G59A C79A C87G C99G
A23G U56G G68U U90A C95U C105A G117U
A23G U78G A89U A91U C93G U102C A115G G126U G141C A142U
A23U A24G U55G U61G A97C C99A C103A
A23U A26G A41G G50U U53A C96A
A23U A28U U44A A47C G50A C93A A98G C116G G126A
A23U A29C U127A C129A A150U
A23U A30G G50C C75G C93A U104G U146A
A23U A30G U55A G94A C103A G143A U148A
A23U A30U C32A A40U U61C G70A G80A G92A U101C C114U
A23U A41U G48U U55A C57G G88U A107G
A23U A47U G58A G70A A89G A98G
A23U A52U C76G G83C U104G
A23U A60G U61G C87G C131G
A23U A73U U77G C95U G136U G140A
A23U C27G C51G G58A G83C C87U C95U A97C C105U A150G
A23U C27G C57A C85U U90G U101G C118G G141U
A23U C27U A49U C75G U82G G92U A97U G117C C149U
A23U C35A G42C C99U G152A
A23U C35U A40C C75A U139G
A23U C36U A47U G83A
A23U C38G C54U A89U
A23U C38U G48C A89U C103G C108A
A23U C51U C87G C125A U144A
A23U C54U A66G U90C G94C U102G C103U
A23U C57A G80A U145A
A23U C76U C93U C99G
A23U C85A A97U
A23U C85A A97U G141C
A23U C87G G100A A107G A147C
A23U C87U C103G U109G U135C
A23U C95U C96U
A23U G25A G46U U53A C69A G86C A91U U127G U144A
A23U G25C C35U G59C G74A A113G
A23U G25U A41C C54U C57G G59A G62A C93U A147U
A23U G25U A47C U55G G67A A73U A91U C95A C105U U146A
A23U G46A G59C C99G U148G
A23U G46A U61G A91U
A23U G46C G50C U55A C69G G88C G92C A142C
A23U G50A A52U C87G A89C C96A A137U A142C
A23U G58A G71A C75G G92A A119U U139C
A23U G59C G62C G70U
A23U G67C C76U C87A A106G A137G
A23U G71A
A23U G71A C105G
A23U G81A A91U A106U
A23U G84A C96U A106G C108G A137U
A23U G92A G100U U127G G143C A150U
A23U U31C U44G A73C C87G
A23U U45A G48A G50A C57G C87A A147G A150G
A23U U45C U61G U82C A107G A115G U146G
A24C A26U G50A C93A C96U C114G C132U
A24C A29U A40G U55A G71C A98U U135G
A24C A29U G50U A52U U53A U55A G88U G141A
A24C A30U C72U C76U C96U G136A A138U
A24C A37G C43U U130A
A24C A39G A49U G86A C87G A106C G136U A150C
A24C A39U
A24C A40U C149G
A24C A40U G50C A73U C79U C85G
A24C A41C C57U C85G G117A C149G
A24C A47C C51A G83A C93U G124C G140U
A24C A49G C105U
A24C A52G G86A C132A
A24C A52U C79A A89G C95G C108G A138U U144G
A24C A91G C118U A121G A137G A147C
A24C A138U
A24C C27A C51U G81A C87U U90A
A24C C27G A52U A89C
A24C C27U A52G
A24C C32G U56A C93U
A24C C38A C76U A120U U151C
A24C C38G U55A G83A G94C A97U G100U C105A
A24C C38U C54U A73G G83C C85U U102G C105U C116U
A24C C38U C57A
A24C C43U G62U C96G A120G U130C
A24C C51U A60G C99A
A24C C63A G81C G92U A98U A115G
A24C C69G
A24C C76A
A24C C116A U148A
A24C G46C G58C A60G C87A U146G
A24C G46U U109G C129A C149U
A24C G50U C99U C118A U144A
A24C G58A G86C G136C C149U
A24C G68A C96U C105U A120G A121U
A24C G71A C87G A113G A147U
A24C G81A C93G A121C G133U
A24C U55A G88C C108U U148G
A24C U61A G86A U90C A110G U135G
A24C U78A C96U U134C A138C A142G
A24G A26G G83C U145C
A24G A26U U56A C87G C149G G152A
A24G A28C C43G C54G G59U A119U A137G A138U
A24G A37U A41U U77G C96U C105G
A24G A39C G48U A60C C93G
A24G A47G C54U A60C G74U C108G
A24G A47G C85U C95G A121U G140C
A24G A47G G83C U109A C116A C123G
A24G A49C
A24G A49G G59C G83U C85U U151A
A24G A52C A91C
A24G A52G C57U C87A U109G C118U A142U G152U
A24G A66C C87G G92A U145G
A24G A66U A91G
A24G C27A C72A U77G G86U C129U
A24G C32G G48C G50A G86U
A24G C32G U45G C72U C95A C103G G133A
A24G C32U C35G A37C C79A A89U
A24G C32U G81U G100A A138G G152A
A24G C35G C57U A107U U134C U144C
A24G C35U C51U C75U A97G
A24G C35U G48U U56A U61C C95G C105G
A24G C38U G59C A98G U101G A119C G128C G140A
A24G C43U U55A A64G C76A G136A
A24G C54G G68U C76G G81A C85G
A24G C69G
A24G C79A G84A C116A
A24G C79A G84U A120U U127G C149G
A24G C85G U148C
A24G C93U A98C C103U
A24G G46U C54U C93U C114U
A24G G48A A115G U139G U144G
A24G G50C A66G A121U C131U
A24G G50C C87U A120G
A24G G50U G94A A98G U144C
A24G G65C A91G
A24G G80C G126C C131U
A24G U31A G42C A52G A60C C87G C114U
A24G U61G G68A G88A
A24G U77A A89G A113C
A24G U78G G86A
A24U A28C G71U C99A C114U A120G A121U G141A U144A
A24U A29G C85U C105A C116G C125G U144G
A24U A29U G58C G67A G92U C105G A113C
A24U A30U C35U A41C G42U G59A C93G A113G
A24U A37C A49G C76U G88C C103A C105G G143U
A24U A39C C85G A107U C125G
A24U A39C G50U C57G C72G G81C C85U C118A C125U
